Experimental data as given in the supplement of paper PMC9446081.
Hit rate of the full screen: of about 39,000 compounds, about 220 (0.56%) showed activity. Some of the results follow.

Each molecule was assayed on Escherichia coli K-12 BW25113 (assay: relative growth (OD600 normalised to plate interquartile mean) (fraction); higher = less growth inhibition, active = 0.2 or less). Conditions: 50 µM; LB; incubation time: overnight (16-24 h).
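Further: static incubation at 37 °C against the wild-type strain, values averaged over two biological replicates.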

Row | Compound | relative growth
1 | O=C(CN1CCOCC1)NCC[C@H]1CC[C@H](NS(=O)(=O)c2ccc(Cl)cc2)[C@@H](CO)O1 | inactive: 0.996
2 | Cc1noc(C)c1S(=O)(=O)N(C)C[C@H]1OCCCC[C@@H](C)Oc2ccc(NS(=O)(=O)c3cn(C)cn3)cc2C(=O)N([C@@H](C)CO)C[C@H]1C | inactive: 0.977
3 | CN(C)CCCNC(=O)C[C@@H]1CC[C@H]2[C@@H](COC[C@@H](O)CN2S(=O)(=O)c2ccc(Cl)cc2)O1 | inactive: 0.995
4 | C[C@H]1CN([C@@H](C)CO)C(=O)Cc2cc(NC(=O)CCCN(C)C)ccc2O[C@H]1CN(C)S(=O)(=O)c1ccc(F)cc1 | inactive: 0.975
5 | Cc1occc1CN | inactive: 0.984
6 | O=C(C[C@@H]1CC=CC[C@@H](NC(=O)OCC2c3ccccc3-c3ccccc32)C(=O)OC[C@@H](Cc2c[nH]c3ccccc23)NC1=O)N[C@H](CO)Cc1ccccc1 | inactive: 0.96
7 | O=C(C[C@H]1C=C[C@H](NC(=O)CN2CCOCC2)[C@@H](CO)O1)NCCc1ccccc1 | inactive: 0.982
8 | NC(=O)COc1ccccc1 | inactive: 0.995
9 | O=C(C[C@H]1C[C@@H]2c3cc(NC(=O)c4ccc5c(c4)OCO5)ccc3O[C@@H]2[C@H](CO)O1)NCCc1ccccc1 | inactive: 0.987
10 | COc1cc2c(cc1OC)CN(C(=O)[C@H]1[C@@H]3C(=O)O[C@@H](c4ccccc4)[C@@H](c4ccccc4)N3[C@@H](c3ccc(O)cc3)[C@]13C(=O)Nc1ccc(C#CC4=CCCCC4)cc13)CC2 | inactive: 1.03
11 | C[C@@H]1CCCCO[C@H](CN(C)Cc2ccc(C(=O)O)cc2)[C@H](C)CN([C@@H](C)CO)C(=O)c2cc(NC(=O)c3ccccc3)ccc2O1 | inactive: 1.01
12 | C[C@@H]1CN([C@@H](C)CO)C(=O)c2cc(NC(=O)CCN3CCOCC3)ccc2O[C@H]1CN(C)Cc1ccncc1 | inactive: 1.01
13 | C[C@H]1CN([C@@H](C)CO)S(=O)(=O)c2ccc(C3=CCCCC3)cc2O[C@@H]1CN(C)C(=O)C1CCOCC1 | inactive: 1.02
14 | Cc1noc(C)c1NC(=O)Nc1ccc2c(c1)C(=O)N([C@@H](C)CO)C[C@H](C)[C@@H](CN(C)C(=O)c1ccccc1)OCCCC[C@@H](C)O2 | inactive: 0.989
15 | Cc1noc(C)c1NC(=O)Nc1ccc2c(c1)CC(=O)N([C@@H](C)CO)C[C@H](C)[C@H](CN(C)C(=O)Nc1ccc(C(F)(F)F)cc1)O2 | inactive: 0.971
16 | COc1cc(CO)cc(I)c1O[C@H]1C=C(C(=O)NCCO)C[C@@H](N(Cc2ccc(F)cc2)C(=O)[C@H]2CCCO2)[C@@H]1O | inactive: 0.997
17 | CCCNC(=O)Cc1nnc[nH]1 | inactive: 1.02
18 | C[C@@H]1CN([C@@H](C)CO)C(=O)c2cccc(NC(=O)c3ccncc3)c2O[C@H]1CN(C)Cc1ccc2c(c1)OCO2 | inactive: 0.991
19 | COc1ccc(S(=O)(=O)N(C)C[C@@H]2OCCCC[C@@H](C)Oc3ccc(NC(=O)Nc4ccc5c(c4)OCO5)cc3C(=O)N([C@H](C)CO)C[C@@H]2C)cc1 | inactive: 1.05
20 | COc1cccc(NC(=O)N(C)C[C@H]2OCc3ccccc3-c3c(n(C)c4ccccc34)C(=O)N([C@@H](C)CO)C[C@@H]2C)c1 | inactive: 0.985

Row | Compound | relative growth
21 | O=C(C[C@@H]1CC[C@H](NC(=O)c2cnccn2)[C@H](CO)O1)NCc1ccccc1F | inactive: 1.01
22 | C[C@@H]1CN([C@@H](C)CO)C(=O)c2cc(NC(=O)Nc3ccc4c(c3)OCO4)ccc2O[C@@H](C)CCCCO[C@H]1CN(C)Cc1ccccc1 | inactive: 1.06
23 | C[C@@H]1CN([C@H](C)CO)C(=O)Cc2cc(NC(=O)Nc3cccc4ccccc34)ccc2O[C@H]1CN(C)C(=O)Nc1ccc2c(c1)OCO2 | inactive: 0.975
24 | COCCNC(=O)[C@H]1[C@H](CO)[C@H]2Cn3c(cccc3=O)[C@@H]1N2S(=O)(=O)c1ccccc1C | inactive: 0.988
25 | C[C@H](CO)N1C[C@H](C)[C@H](CN(C)Cc2ccncc2)Oc2ccc(NS(=O)(=O)c3ccccc3)cc2C1=O | inactive: 0.984
26 | COc1ccc(CN(C)C[C@@H]2OCCCC[C@@H](C)Oc3ccc(NC(=O)CCC(F)(F)F)cc3C(=O)N([C@@H](C)CO)C[C@@H]2C)cc1 | inactive: 0.996
27 | Nc1ncn([C@H]2C[C@H](O)[C@@H](CO)O2)c(=O)n1 | inactive: 0.918
28 | C[C@@H]1CCCCO[C@H](CN(C)C(=O)Nc2ccccc2)[C@H](C)CN([C@H](C)CO)C(=O)c2cc(NC(=O)Nc3ccc(C(F)(F)F)cc3)ccc2O1 | inactive: 1.05
29 | CN(CCO)S(=O)(=O)c1cccc(C(=O)O)c1 | inactive: 1.01
30 | CC1(CN)Cc2ccccc2C1 | inactive: 0.994
31 | C[C@@H]1CN([C@@H](C)CO)C(=O)c2cc(NS(=O)(=O)c3ccccc3)ccc2O[C@@H](C)CCCCO[C@@H]1CN(C)C(=O)CCC(F)(F)F | inactive: 1
32 | CCCNC(=O)N1C[C@@H](O)COC[C@H]2O[C@H](CC(=O)NCCCN3CCOCC3)CC[C@@H]21 | inactive: 1.04
33 | CC(C)NC(=O)N(C)C[C@@H]1OCCCC[C@H](C)Oc2ccc(NC(=O)Nc3ccc(C(F)(F)F)cc3)cc2C(=O)N([C@H](C)CO)C[C@@H]1C | inactive: 1.02
34 | C[C@@H]1CCCCO[C@@H](CN(C)Cc2ccc(C(F)(F)F)cc2)[C@@H](C)CN([C@H](C)CO)C(=O)c2cc(NS(=O)(=O)c3ccc(Cl)cc3)ccc2O1 | inactive: 1.05
35 | C[C@H](CO)N1C[C@H](C)[C@H](CN(C)S(=O)(=O)c2cn(C)cn2)Oc2ccc(NC(=O)Nc3ccc(F)cc3)cc2CC1=O | inactive: 1.01
36 | COc1ccc(S(=O)(=O)Nc2cccc3c2O[C@H](CN(C)C(=O)Nc2cccc4ccccc24)[C@H](C)CN([C@@H](C)CO)C3=O)cc1 | inactive: 1
37 | Cc1noc(C)c1NC(=O)N(C)C[C@@H]1Oc2ccc(NS(=O)(=O)c3c(C)noc3C)cc2CC(=O)N([C@H](C)CO)C[C@@H]1C | inactive: 0.992
38 | C[C@@H]1CCCCO[C@@H](CN(C)C(=O)CCC(F)(F)F)[C@@H](C)CN([C@@H](C)CO)C(=O)c2cc(NC(=O)c3ccccc3)ccc2O1 | inactive: 1
39 | C[C@H]1CN([C@@H](C)CO)C(=O)c2cccc(NC(=O)NC3CCCCC3)c2O[C@H]1CN(C)C(=O)Nc1cccc2ccccc12 | inactive: 1
40 | CCC(C)C(=O)OC1CC(O)C=C2C=CC(C)C(CCC(O)CC(O)CC(=O)[O-])C21.[Na+] (centres undefined) | inactive: 0.893

Row | Compound | relative growth
41 | C[C@H]1CN([C@@H](C)CO)C(=O)c2cccc(NC(=O)C3CCOCC3)c2O[C@@H]1CN(C)C(=O)NC1CCCCC1 | inactive: 0.946
42 | C[C@@H]1CCCCO[C@H](CN(C)C(=O)C2CCCCC2)[C@@H](C)CN([C@H](C)CO)C(=O)c2cc(NC(=O)Nc3ccc4c(c3)OCO4)ccc2O1 | inactive: 1.05
43 | COc1ccc2c3c(n(c2c1)C)[C@H](CO)N(C[C@]13CN(C1)C(=O)Nc1cccc(c1)F)S(=O)(=O)C | inactive: 0.991
44 | C[C@@H]1CN([C@H](C)CO)C(=O)Cc2cc(NC(=O)Cn3cnnn3)ccc2O[C@H]1CN(C)C(=O)NC1CCCCC1 | inactive: 0.988
45 | Cc1nc[nH]c1CN(C)[C@H](C)C(=O)N(C)C | inactive: 1.02
46 | C[C@H](CO)N1C[C@H](C)[C@H](CN(C)C(=O)Cc2ccncc2)Oc2cc(C#CC3CC3)ccc2S1(=O)=O | inactive: 0.879
47 | C[C@@H]1CN([C@@H](C)CO)C(=O)c2cc(NC(=O)Nc3cccc4ccccc34)ccc2O[C@@H](C)CCCCO[C@H]1CN(C)CC1CCCCC1 | inactive: 1.02
48 | Cc1noc(C)c1NC(=O)Nc1ccc2c(c1)C(=O)N([C@@H](C)CO)C[C@@H](C)[C@H](CN(C)C(=O)Nc1ccc(C(F)(F)F)cc1)O2 | inactive: 0.956
49 | C[C@@H]1CCCCO[C@H](CN(C)Cc2ccc3c(c2)OCO3)[C@H](C)CN([C@H](C)CO)C(=O)c2cc(NS(=O)(=O)c3ccc(Cl)cc3)ccc2O1 | inactive: 1.01
50 | C[C@H](CO)N1C[C@H](C)[C@H](CN(C)C(=O)CCCN(C)C)OCCCC[C@H](C)Oc2ccc(NC(=O)Nc3cccc4ccccc34)cc2C1=O | inactive: 0.965
51 | Oc1ccccc1CNc1ccc(C2CCCCC2)cc1 | inactive: 1.03
52 | CCn1c2ccc(Cl)cc2c2cc(Cl)ccc21 | inactive: 1.02
53 | CN(C)CCCNC(=O)C[C@H]1CC[C@H]2[C@@H](COC[C@@H](O)CN2S(=O)(=O)c2ccccc2)O1 | inactive: 0.999
54 | C[C@H]1CN([C@@H](C)CO)C(=O)c2cc(NS(=O)(=O)c3ccccc3)ccc2O[C@@H]1CN(C)S(=O)(=O)c1ccc(F)cc1 | inactive: 0.992
55 | O=C(CCCCCNC(=O)OCc1ccc(CO[C@@H]2C[C@H](c3ccc(C(F)(F)F)cc3)C=C(C(=O)N3CCN(Cc4ccccc4)CC3)O2)cc1)NO | inactive: 0.934
56 | COc1ccc2c3c([nH]c2c1)[C@@H](CO)N(C[C@]13CCN(CC1)Cc1ccccc1OC)C(=O)Nc1ccc(cc1)F | inactive: 0.988
57 | COc1ccc(S(=O)(=O)Nc2ccc3c(c2)C(=O)N([C@H](C)CO)C[C@@H](C)[C@@H](CN(C)Cc2ccc4c(c2)OCO4)OCCCC[C@@H](C)O3)cc1 | inactive: 1.02
58 | COc1ccc(NC(=O)N(C)C[C@H]2OCCCC[C@H](C)Oc3ccc(NC(=O)C4CCCCC4)cc3C(=O)N([C@H](C)CO)C[C@H]2C)cc1 | inactive: 1.02
59 | O=C(CCCCCCC(=O)Nc1ccc([C@H]2O[C@H](CSc3nc(-c4ccccc4)c(-c4ccccc4)o3)C[C@H](c3ccc(NC(=O)CCCCCCC(=O)NO)cc3)O2)cc1)NO | inactive: 1.04
